In the supplement of paper PMC3334620:
Whole data set: some 33,000 sequences, median “E-score (-0.5 to 0.5)” near -0.012, cut for the highest 2% near 0.29. The list shows a part of the results.

Target: T1, Ybr033w (UniProt P38073)
T1 sequence: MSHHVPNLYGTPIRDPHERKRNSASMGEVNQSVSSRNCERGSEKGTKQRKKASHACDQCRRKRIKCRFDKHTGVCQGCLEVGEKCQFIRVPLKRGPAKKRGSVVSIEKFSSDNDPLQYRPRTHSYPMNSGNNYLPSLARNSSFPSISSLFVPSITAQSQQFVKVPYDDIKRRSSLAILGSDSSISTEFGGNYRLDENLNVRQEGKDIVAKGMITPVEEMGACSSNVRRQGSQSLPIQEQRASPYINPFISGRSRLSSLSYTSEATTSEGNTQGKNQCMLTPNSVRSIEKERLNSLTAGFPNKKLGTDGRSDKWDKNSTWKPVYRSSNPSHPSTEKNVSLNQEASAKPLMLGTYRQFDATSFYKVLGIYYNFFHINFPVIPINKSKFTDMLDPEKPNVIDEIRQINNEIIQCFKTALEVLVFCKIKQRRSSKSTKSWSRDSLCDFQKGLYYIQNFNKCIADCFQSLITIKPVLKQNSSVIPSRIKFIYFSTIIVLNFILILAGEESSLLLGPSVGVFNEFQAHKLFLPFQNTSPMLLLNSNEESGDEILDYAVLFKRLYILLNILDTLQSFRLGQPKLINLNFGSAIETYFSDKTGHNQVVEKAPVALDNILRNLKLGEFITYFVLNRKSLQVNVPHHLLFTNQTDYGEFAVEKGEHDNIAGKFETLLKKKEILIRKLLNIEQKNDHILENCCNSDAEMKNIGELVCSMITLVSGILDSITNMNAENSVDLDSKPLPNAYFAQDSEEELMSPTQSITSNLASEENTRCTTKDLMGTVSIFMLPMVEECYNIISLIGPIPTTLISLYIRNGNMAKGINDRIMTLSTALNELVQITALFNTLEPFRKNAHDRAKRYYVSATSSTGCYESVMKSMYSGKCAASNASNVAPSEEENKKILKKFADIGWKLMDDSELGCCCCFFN
Experiment: PBM E-score (8-mer binding enrichment) (E-score (-0.5 to 0.5)); higher = stronger / more preferred TF binding; most listed sequences are background and not binding sites
Conditions: protein concentration: 200 nM; construct: GST-full length
Summary of the method: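 For each ungapped eight-base word taken together with its reverse complement, the Universal PBM Analysis Suite assigned an E-score. Binding data came from GST-tagged yeast transcription factors, applied at about 100-200 nM, on universal all-10-mer Agilent arrays made double-stranded by primer extension. Fluorescent anti-GST marked bound protein, and scans were normalised with masliner.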

Sequence | PBM E-score
AGTCTGAC | -0.155
GATGGCAC | -0.258
CGCGACCA | -0.113
GGTGGGTA | 0.049
ATCCTTCG | 0.059
CACGATTA | 0.0858
ACCGTAAG | 0.0895
CCGCGGGA | 0.055
ATGGGCTA | 0.205
CCGGAGGA | -0.0855
ACTAACTA | 0.0153
CAAAAGTA | 0.16
AAGTCTCG | -0.205
GGTTTTTA | 0.135
AGTTGGGC | -0.103
GACCGAAA | 0.0561
CTCTCCAA | -0.189
CCGTTGAG | 0.023
ATGGCACA | -0.0621
TCTTTTAA | 0.133
AGGCGGTG | -0.207
CAGCCCTC | -0.203
CCTCTGCA | -0.134
ACTAGCCG | -0.0895
TCATGCCA | 0.0753

Sequence | PBM E-score
CTATGGCA | -0.237
CCTACGAC | -0.0251
CGCTGAGC | -0.0727
TCGTAAAA | 0.132
CCAACCAA | -0.128
ACACGGCC | -0.183
TCTCTGCA | -0.162
AAGTTGTA | 0.186
CGGGGATA | -0.103
CCACATCG | 0.0256
ATAATTTG | 0.35
ACGCCACC | -0.171
CGATTATC | 0.07
AAACAACA | 0.182
TCTGAAGA | 0.00537
GCTCGATA | 0.0813
AGATCTCA | -0.0281
CGGGGTCC | -0.324
GAGAACGA | -0.0798
AAGGGTCG | -0.0576
GGCTGTAA | -0.0501
AGGCATTA | -0.0439
CATCGACG | -0.0899
CGCATCCA | -0.0928
GTAGTGAC | -0.081

Sequence | PBM E-score
GGCCATGA | -0.0003
GTTGTACA | 0.188
GCTTATGA | -0.0277
GCCGTTGA | 0.0853
ATAGCTAC | -0.00419
ACGACGCT | -0.174
GCTCGAGA | -0.133
CCCGTTAA | -0.192
ACAATAAA | 0.14
AACATTGG | 0.043
AGGTGTTA | 0.0646
ACTGTCAC | 0.00911
CAGGGTTA | -0.0583
AGACATCA | -0.0142
CGACGTCC | -0.19
CCCCCGGC | -0.433
GATCCCGA | -0.0648
ATATGGAG | 0.0461
AGGTCCCG | -0.0489
GTAAGGCA | -0.196
GTCCATCA | -0.0703
CACGGCTG | -0.221
GTACCGAA | -0.191
ACCGTACC | -0.158
ACGAATTC | 0.0691

Sequence | PBM E-score
CGCACCAA | 0.0188
GGGATCGA | -0.0518
CTGGGAGA | -0.155
CAGCCCCC | -0.434
AGCTGGGG | -0.0432
GGCTGAGA | -0.171
CGTCCTCA | -0.128
AAAAACAA | 0.321
GACAACTC | 0.00718
CCATGGTC | -0.138
ACCCCCTC | -0.378
ATGCAGAG | -0.102
ATGGCGAA | 0.165
ATAGTTGC | 0.199
CAGGTGGC | -0.162
CGACCTCC | -0.00382
TACAGAAA | 0.169
CGTAGTCA | -0.186
ACCAGCCG | -0.0373
ACTTGAAT | 0.174
GAGGATAC | -0.0653
CCAGTTCA | 0.116
AATCATTA | 0.227
CCTCAGTA | -0.135
CATCGCGA | 0.104

Sequence | PBM E-score
CGGCACCC | -0.207
CCGGTCAA | -0.115
CAAGACTC | -0.1
AGCTCAAA | 0.143
ATAAGGCG | 0.017
CGGTCAAA | 0.0995
GGAGGAAC | -0.147
AGGCTTGA | -0.047
ATCTCAAG | 0.0819
CGACGTGA | -0.0087
AGACACTG | 0.105
ATCAGCGC | -0.0697
GCCTCCGA | -0.125
CCGCTCAA | -0.0575
CTGCATCA | 0.181
CCTACTTC | -0.0544
AAAGGGGT | -0.342
AACAACGG | -0.0283
ATATACAC | 0.262
AGTCAATG | 0.0295
CTAAATAG | 0.187
GATCGGGA | -0.309
CCTGTGTC | -0.273
AGGGGAAG | -0.272
CGTAGTAC | 0.0943

Sequence | PBM E-score
CCATGTAG | -0.0651
AGCTCTCG | -0.152
ATCTGACA | -0.0543
AATGCCCT | -0.153
AAGAAAGA | 0.095
ACGGTCGG | -0.239
TGATCGCA | -0.107
GGTGCCGA | -0.0186
CTAGAAAC | -0.00294
AGATGAGG | -0.264
GAAACCTC | -0.0461
AGGAGTGC | -0.0831
ACAGAAAC | 0.237
CGTATCTA | 0.108
CAGGTAAC | -0.106
CGATATCG | 0.174
CCCTCAAC | -0.204
AGTAACCC | -0.056
TTACGAAA | 0.133
AACTATTG | 0.279
AAGCCATT | 0.0741
CCCAAAGC | -0.0545
AGTGACAA | 0.109
CCTCTCCG | -0.281
TCACGACA | 0.0796

Sequence | PBM E-score
ACGACTCG | -0.0965
AGTAGGCA | 0.26
GAATATAA | 0.131
CTCGGGTC | -0.144
AGGAGGCC | -0.34
CGGTAATA | 0.172
GATACTAC | 0.0161
ATAGCTTC | 0.135
GCCCGGCC | -0.332
ATTCCAAC | 0.103
AGCCGGAA | 0.22
GCCAACCA | -0.147
CGTGCGTA | -0.0281
AGATTAGG | 0.00497
GGCGGATA | 0.0943
AAACATTC | -0.0265
CGCCTTCC | -0.23
CGACGACC | -0.0467
AAGGTTAA | 0.0592
ACGTAGCA | 0.00827
AGCCTTTG | -0.0932
AACGGAAT | 0.235
